Experimental data published in PubChem BioAssay AID504937 (National Center for Advancing Translational Sciences (NCATS), 2011).
In all, about 340,000 compounds went through this assay and about 20 (0.006%) were called active. Inconclusive results, whose numbers are uncertain, are shown with a selection of clear calls. Calls come from the whole dose curve; as a rule, active = well fitted inhibition curve with a large enough effect; inconclusive = small, poorly fitted or top-dose-only effect; inactive = no such curve, though single readings can be large or run the other way. A potency beside an inconclusive call is a rough fit, not a confirmed value.

Target: Sphingomyelin phosphodiesterase (Homo sapiens) (UniProt P17405)
Sequence of UniProt P17405 (P17405 whole entry, looked up): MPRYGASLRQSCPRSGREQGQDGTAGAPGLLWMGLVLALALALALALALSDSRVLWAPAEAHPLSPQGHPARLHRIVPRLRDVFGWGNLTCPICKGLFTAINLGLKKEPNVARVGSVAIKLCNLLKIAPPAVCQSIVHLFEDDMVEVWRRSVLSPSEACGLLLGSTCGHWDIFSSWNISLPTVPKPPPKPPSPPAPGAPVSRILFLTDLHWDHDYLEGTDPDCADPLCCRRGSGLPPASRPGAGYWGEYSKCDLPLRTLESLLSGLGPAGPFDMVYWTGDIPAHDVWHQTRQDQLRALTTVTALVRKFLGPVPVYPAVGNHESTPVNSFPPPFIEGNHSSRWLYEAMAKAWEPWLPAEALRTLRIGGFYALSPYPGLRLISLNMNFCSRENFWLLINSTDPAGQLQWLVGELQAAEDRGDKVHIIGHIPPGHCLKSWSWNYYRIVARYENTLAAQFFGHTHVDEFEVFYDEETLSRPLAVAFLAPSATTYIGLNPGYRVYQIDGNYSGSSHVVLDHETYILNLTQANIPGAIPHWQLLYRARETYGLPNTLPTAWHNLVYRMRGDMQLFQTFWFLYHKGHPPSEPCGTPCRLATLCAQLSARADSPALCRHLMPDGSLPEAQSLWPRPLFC
Assay: Inhibitors of Secretory Acid Sphingomyelinase (S-ASM): qHTS
Details: placental ASM, HMU-PC fluorogenic substrate (series up to 57.5 µM), 60 min; activity change, negative = inhibition: at the top concentration
Summary of the method: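 Steps: dispense placental human ASM, pin compound, wait 10 min at room temperature, add HMU-PC0 substrate at 9 uM final, incubate 60 min at 37 °C, add stop solution raising pH to 10, read fluorescence.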
Potency is the fitted concentration of half-maximal effect; tags give direction and shape of the fitted curve.

**Q.** For `COc1cc2c(cc1NC(=O)CN(C)Cc1nc3ccccc3c(=O)[nH]1)oc1ccccc12`, which Potency is on record?
**A.** inconclusive: 89.1 µM [inhibitor, single point]

**Q.** For `C=CCN1C(=O)/C(=C\c2ccc(Oc3nc(N4CCOCC4)nc(N4CCOCC4)n3)c(OC)c2)SC1=S`, which Potency is on record?
**A.** inconclusive: 355 µM [inhibitor, partial curve, poor fit]

**Q.** Which “activity change, negative = inhibition” value does the source give for `CCOc1ccc(NC(=O)COC(=O)c2c(OC)cccc2OC)cc1` here?
**A.** inactive: -0.536%

**Q.** How did the Potency turn out when `COc1ccccc1-c1nnc(SCC(=O)NCc2c(C)c(Cl)cc(C(C)C)c2O)o1` was run?
**A.** inconclusive: 282 µM [inhibitor, partial curve, poor fit]

**Q.** How did the Potency turn out when `COc1ccc(Cc2nn3c(-c4cc(OC)c(OC)c(OC)c4)nnc3s2)cc1` was run?
**A.** inconclusive: 79.4 µM [inhibitor, single point]

**Q.** For `Oc1ccc(NC(=S)N=Nc2c(O)[nH]c3ccc(Br)cc23)cc1`, which Potency is on record?
**A.** inconclusive: 89.1 µM [inhibitor, partial curve, poor fit]

**Q.** For `COc1cc(/C=N/Nc2nc(Nc3ccccc3)nc(N3CCCCC3)n2)ccc1OCC(=O)O`, which Potency is on record?
**A.** inconclusive: 70.8 µM [inhibitor, partial curve, poor fit]

**Q.** How did the Potency turn out when `CC1=NN(c2ccc(C)cc2)C(=O)/C1=C/c1ccc(-c2cc([N+](=O)[O-])ccc2O)o1` was run?
**A.** inconclusive: 1000 µM [inhibitor, partial curve, poor fit]

**Q.** With `C[C@H](CO)N1C[C@H](C)[C@@H](CN(C)C(=O)Nc2ccc(C(F)(F)F)cc2)Oc2c(NC(=O)Nc3ccc(C(F)(F)F)cc3)cccc2C1=O` as the compound, how does the Potency read?
**A.** inconclusive: 56.2 µM [inhibitor, partial curve, poor fit]

**Q.** For `Cc1cc(C)nc(NC(=NCCc2c[nH]c3ccccc23)NC(=O)c2ccco2)n1`, which Potency is on record?
**A.** inconclusive: 89.1 µM [inhibitor, partial curve, poor fit]

**Q.** `C[N+](C)(CCOc1ccccc1)Cc1ccccc1` was tested. Which “activity change, negative = inhibition” value did it give?
**A.** inactive: 2.63%

**Q.** How did the Potency turn out when `COc1cccc(/C=N/Nc2nc(Nc3ccccc3)nc(-n3nc(C)cc3C)n2)c1O` was run?
**A.** inconclusive: 112 µM [inhibitor, partial curve, poor fit]

**Q.** How did the Potency turn out when `Cc1nc(NC(=O)/C=C/c2ccc(C(C)(C)C)cc2)sc1C(=O)N(C)C` was run?
**A.** inconclusive: 89.1 µM [inhibitor, partial curve, poor fit]

**Q.** For `COc1cccc(/C=N\NC(=O)c2sc(N)nc2C)c1OC`, which “activity change, negative = inhibition” value is on record?
**A.** inactive: -1.83%

**Q.** With `O=C1C(c2ccccc2)=[N+]([O-])c2ccccc21` as the compound, how does the “activity change, negative = inhibition” value read?
**A.** inactive: -0.993%

**Q.** How did the “activity change, negative = inhibition” value turn out when `CCN(/N=C/c1ccc(Cl)cc1)c1cc(=O)n(C)c(=O)[nH]1` was run?
**A.** inactive: 1.12%

**Q.** `O=S(c1ccccc1O)S(=O)c1ccccc1O` (stereo unspecified) was tested. Which “activity change, negative = inhibition” value did it give?
**A.** inactive: -2.88%

**Q.** Which “activity change, negative = inhibition” value does the source give for `O=C1CC(N2C(=O)/C(=C/C=C/c3ccccc3)SC2=S)C(=O)N1c1ccccc1` (stereo unspecified) here?
**A.** inactive: -14.3%

**Q.** For `Cc1ccc(N2CC(C(=O)Nc3nc4ccc(S(C)(=O)=O)cc4s3)CC2=O)cc1` (stereo unspecified), which Potency is on record?
**A.** inconclusive: 70.8 µM [inhibitor, partial curve, poor fit]

**Q.** With `Cc1c(C(=O)OCC(=O)Nc2cccc(S(N)(=O)=O)c2)oc2c1ccc1ccccc12` as the compound, how does the Potency read?
**A.** inconclusive: 158 µM [inhibitor, partial curve]

**Q.** With `COc1ccc(C2C(C)C(=O)C(C)C(c3ccc(OC)cc3)N2N=O)cc1` (stereo unspecified) as the compound, how does the Potency read?
**A.** inconclusive: 39.8 µM [inhibitor, partial curve]

**Q.** Which Potency does the source give for `CSc1ccc(CCNC(=O)c2cccc3c2C(=O)N(C2CCCCC2)C3)cc1` here?
**A.** inconclusive: 224 µM [inhibitor, partial curve, poor fit]

**Q.** Which “activity change, negative = inhibition” value does the source give for `COCc1[nH]nc2c1C(c1ccc(OC)cc1)C(C#N)=C(N)O2` (stereo unspecified) here?
**A.** inactive: 0.0084%

**Q.** With `COc1cc2c(cc1NC(=O)COC(=O)Cn1cnc3ccccc31)oc1ccccc12` as the compound, how does the Potency read?
**A.** inconclusive: 79.4 µM [inhibitor, partial curve]

**Q.** `CCCCOc1ccc(C2(C)NC(=O)N(C)C2=O)cc1` (stereo unspecified) was tested. Which “activity change, negative = inhibition” value did it give?
**A.** inactive: 3.27%

**Q.** How did the Potency turn out when `Cc1cc(C)c(C(=O)COC(=O)[C@H](C)Nc2ccc(C(F)(F)F)cc2[N+](=O)[O-])c(C)c1` was run?
**A.** inconclusive: 1120 µM [inhibitor, partial curve, poor fit]

**Q.** `COc1ccc(-c2csc3ncnc(Oc4cccc5ccc(C)nc45)c23)cc1` was tested. Which “activity change, negative = inhibition” value did it give?
**A.** inactive: -13.4%

**Q.** `CC(=O)Nc1ccc(Nc2ccc([N+](=O)[O-])cn2)cc1` was tested. Which Potency did it give?
**A.** inconclusive: 282 µM [inhibitor, partial curve, poor fit]

**Q.** How did the Potency turn out when `Cc1ccc(/C=N/Nc2cc(C)nc(NCc3ccccc3)n2)cc1` was run?
**A.** inconclusive: 112 µM [inhibitor, single point]

**Q.** Which Potency does the source give for `CCCc1sc(N/N=C/c2ccccn2)nc1-c1ccc(Br)cc1` here?
**A.** inconclusive: 89.1 µM [inhibitor, partial curve]

**Q.** Which “activity change, negative = inhibition” value does the source give for `COc1ccc(/C=N/Nc2cc(C)nc(-n3nc(C)cc3C)n2)c(OC)c1` here?
**A.** inactive: -4.76%

**Q.** `Cc1c(C(=O)Nc2ccc(Oc3ccccc3)cc2)sc2nc3n(c(=O)c12)CCC3` was tested. Which Potency did it give?
**A.** inconclusive: 100 µM [inhibitor, partial curve]

**Q.** How did the Potency turn out when `CCOc1ccccc1OCc1nn2c(-c3ccc(C)cc3)nnc2s1` was run?
**A.** inconclusive: 89.1 µM [inhibitor, partial curve]

**Q.** How did the Potency turn out when `Cc1ccc(Nc2cc(C)nc(-c3ccccc3)n2)cc1` was run?
**A.** inconclusive: 398 µM [inhibitor, partial curve, poor fit]

**Q.** For `CCOc1cc(/C=C2\N=C(SCC)SC2=O)cc([N+](=O)[O-])c1OC(C)=O`, which Potency is on record?
**A.** inconclusive: 251 µM [inhibitor, partial curve, poor fit]

**Q.** Which Potency does the source give for `COc1ccc(N2CCC(CNC(=O)Nc3ccc(OC)cc3OC)C2)cc1` (stereo unspecified) here?
**A.** inconclusive: 316 µM [inhibitor, partial curve, poor fit]

**Q.** For `Oc1c(Cl)cc(Cl)cc1C(C#Cc1ccccc1)N1CCOCC1` (stereo unspecified), which Potency is on record?
**A.** inconclusive: 1120 µM [inhibitor, partial curve, poor fit]

**Q.** `CN1\C(=C/C=C/C=C/C=[N+](C)C)C(C)(C)c2ccccc21` was tested. Which Potency did it give?
**A.** inconclusive: 316 µM [inhibitor, partial curve, poor fit]

**Q.** Which “activity change, negative = inhibition” value does the source give for `CCOc1ccc(-n2c(CCc3ccccc3)n[nH]c2=S)cc1` here?
**A.** inactive: -1.15%

**Q.** With `Cc1oc(C(C)(C)C)cc1C(=O)N1CCN(c2ccc(C(F)(F)F)cn2)CC1` as the compound, how does the Potency read?
**A.** inconclusive: 44.7 µM [inhibitor, partial curve, poor fit]

**Q.** With `NC(=O)CC(NC(=O)Cc1cccc2ccccc12)c1ccc(NCCOc2ccccc2)c([N+](=O)[O-])c1` (stereo unspecified) as the compound, how does the Potency read?
**A.** inconclusive: 355 µM [inhibitor, partial curve, poor fit]

**Q.** With `CC(C)CN(CC(C)C)c1ccc(/C=N/n2cnnc2)cc1[N+](=O)[O-]` as the compound, how does the Potency read?
**A.** inconclusive: 89.1 µM [inhibitor, single point]

**Q.** With `Cc1ccc2c(c1)c1c(n2CC(O)CN2CCCCCC2)CCCC1` (stereo unspecified) as the compound, how does the “activity change, negative = inhibition” value read?
**A.** inactive: 0.857%

**Q.** `Cc1ccc(C(=O)/C=C/NNC(=O)c2ccccc2O)cc1` was tested. Which Potency did it give?
**A.** inconclusive: 447 µM [inhibitor, partial curve, poor fit]

**Q.** With `CCCCN1C(=O)c2ccc(C(=O)Nc3ccc(S(=O)(=O)N(C)C)cc3)cc2C1=O` as the compound, how does the Potency read?
**A.** inconclusive: 50.1 µM [inhibitor, partial curve, poor fit]

**Q.** Which Potency does the source give for `COc1ccc(C2CC(c3ccccc3)=NN2C(=O)COC(=O)c2ccc(S(C)(=O)=O)cc2)cc1` (stereo unspecified) here?
**A.** inconclusive: 501 µM [inhibitor, partial curve, poor fit]

**Q.** For `CC(C)S(=O)(=O)C1=NSC2=NC(=O)/C(=C\c3ccc(OC(=O)c4ccco4)cc3)C(=N)N21`, which Potency is on record?
**A.** inconclusive: 15.8 µM [inhibitor, partial curve, poor fit]

**Q.** Which Potency does the source give for `COc1ccc(C2CC(c3ccc(Cl)cc3)Nc3nc(NC(=O)c4ccco4)nn32)cc1` (stereo unspecified) here?
**A.** inconclusive: 89.1 µM [inhibitor, single point]

**Q.** For `CCSc1nsc(NC(=O)Nc2cccc(OC)c2)n1`, which Potency is on record?
**A.** inconclusive: 89.1 µM [inhibitor, partial curve, poor fit]

**Q.** With `CCOc1ccc(/C=N/NC(=O)NC23CC4CC(CC(C4)C2)C3)cc1O` as the compound, how does the Potency read?
**A.** inconclusive: 282 µM [inhibitor, partial curve, poor fit]

**Q.** Which “activity change, negative = inhibition” value does the source give for `CCOc1ccc(/C=N/NC2=NCCCCC2)cc1` here?
**A.** inactive: 1.08%

**Q.** `CCCCCCSc1ccc([C@H]2N[C@@](Cc3ccccc3)(C(=O)OC)[C@H]3C(=O)N(C)C(=O)[C@@H]23)cc1` was tested. Which Potency did it give?
**A.** inconclusive: 501 µM [inhibitor, partial curve, poor fit]

**Q.** Which “activity change, negative = inhibition” value does the source give for `CC(=O)N1CCN(c2ccc(NC(=O)c3ccco3)cc2)CC1` here?
**A.** inactive: -4.39%

**Q.** With `CC(C)(C)OC(=O)NCc1ccc(NC(=O)c2nc[nH]c2C(=O)NCCNC(=O)c2[nH]cnc2C(=O)Nc2ccc(CNC(=O)OC(C)(C)C)cc2)cc1` as the compound, how does the “activity change, negative = inhibition” value read?
**A.** inactive: 1.27%

**Q.** Which Potency does the source give for `O=c1n(Cc2ccc(Cl)cc2)c2sc3c(c2c2ncnn12)CCCC3` here?
**A.** inconclusive: 79.4 µM [inhibitor, single point]

**Q.** With `CC(C)CC(=O)Nc1sc2c(c1C(=O)O)CCCCC2` as the compound, how does the “activity change, negative = inhibition” value read?
**A.** inactive: -0.468%

**Q.** For `CC(/C=N/NC(=O)Cn1cnc2ccccc21)=C\c1ccccc1`, which Potency is on record?
**A.** inconclusive: 355 µM [inhibitor, partial curve, poor fit]

**Q.** With `Cc1ncc([N+](=O)[O-])n1CCOC(=O)Nc1ccc(Cl)c(Cl)c1` as the compound, how does the Potency read?
**A.** inconclusive: 316 µM [inhibitor, partial curve, poor fit]

**Q.** Which “activity change, negative = inhibition” value does the source give for `O=C(NNc1ccccn1)C(=O)NNS(=O)(=O)c1ccc(Cl)cc1` here?
**A.** inactive: 5.01%

**Q.** With `O=C(NCc1nc(-c2ccc(C(F)(F)F)cc2)no1)Nc1ccc(OC(F)(F)F)cc1` as the compound, how does the Potency read?
**A.** inconclusive: 631 µM [inhibitor, partial curve, poor fit]

**Q.** `O=C(C[C@H]1C[C@H](C(=O)N2CCCCC2)[C@@]2(CCc3ccccc3)c3[nH]c4cc(-c5ccco5)ccc4c3CCN2C1=O)NCc1cccc(C(F)(F)F)c1` was tested. Which Potency did it give?
**A.** inconclusive: 20 µM [inhibitor, partial curve, poor fit]
